{
  "source": "PubChem BioAssay AID624296",
  "about": "(National Center for Advancing Translational Sciences (NCATS), 2012)",
  "note": "Screen size: about 350,000 compounds; about 9,900 (2.8%) were called active. Inconclusive means that the source gave no clear call. Such entries were picked first, then a sample of the others. Calls follow the shape of the dose curve; as a rule, active = well fitted activation curve with a large enough effect; inconclusive = small, poorly fitted or top-dose-only effect; inactive = no such curve, though single readings can be large or run the other way. No potency is given beside an inconclusive call; the fits are too rough. Potency is read from the fitted curve at half-maximal effect; tags tell the direction and shape of the fitted curve.",
  "data": [
    {"assay": "A quantitative high throughput screen for small molecules that induce DNA re-replication in MCF 10a normal breast cells; also: nearly all actives have a fitted effect of over 50% in size; as to activity, positive = re-replication: % of control where 0% means no effect.", "settings": "MCF 10A DNA re-replication, Hoechst nuclear intensity, 48 h; activity, positive = re-replication: at 46.1 µM (top of the series)", "values": [
      {"smiles": "Cn1cccc1/C=N\\NC(=O)Cc1ccc(Br)c2ccccc12", "Potency": "inconclusive [activator, single point]"},
      {"smiles": "COc1ccc(-n2ncc3c2CC(C)(C)CC3NC(=O)c2c(C)cc(=O)oc2C)cc1", "note": "(centres undefined)", "activity, positive = re-replication": "inactive: 7.45%"},
      {"smiles": "CC(C)(C)OC(=O)N1CCC(NC(=O)c2nc[nH]c2C(=O)NC2CCN(C(=O)OC(C)(C)C)CC2)CC1", "Potency": "inconclusive [activator, single point]"},
      {"smiles": "Cc1ccc(Cl)cc1NC(=O)CCC(=O)O", "activity, positive = re-replication": "inactive: -1.83%"},
      {"smiles": "CCOc1ccc2c(C)c(C)c(=O)oc2c1OCC", "Potency": "inconclusive [activator, partial curve, poor fit]"},
      {"smiles": "CCOC(=O)c1ccccc1NC(=O)CN1C(=O)c2ccccc2S1(=O)=O", "Potency": "inconclusive [activator, single point]"},
      {"smiles": "C/C(=N\\Nc1cc(C(F)(F)F)ccc1Cl)c1ccccc1O", "Potency": "inconclusive [activator, single point]"},
      {"smiles": "C#Cc1ccc([C@@H]2C=C(C(=O)NCc3ccccc3)O[C@H](OCc3ccc(CO)cc3)C2)cc1", "Potency": "inconclusive [activator, partial curve, poor fit]"},
      {"smiles": "CCCCN(CC)Cc1ccc(CNC(=O)Nc2ccc(OCC)cc2)o1", "Potency": "inconclusive [activator, partial curve]"},
      {"smiles": "O=C(Nc1cccc(S(=O)(=O)Nc2ccc(Cl)cc2)c1)c1ccc2c(c1)OCCO2", "Potency": "inconclusive [activator, single point]"},
      {"smiles": "CC(C)(C)NC[C@H](O)CSc1nc(-c2ccc(C(N)=O)s2)cs1", "activity, positive = re-replication": "inactive: 0.326%"},
      {"smiles": "Cc1cc(C)c(NC(=O)C2CCCN(S(=O)(=O)c3c(C)noc3/C=C/N(C)C)C2)c(C)c1", "note": "(centres undefined)", "Potency": "inconclusive [activator, single point]"},
      {"smiles": "Oc1ccc(/C=N/Nc2ncc(Br)cn2)c(O)c1", "Potency": "inconclusive [activator, full curve, poor fit]"},
      {"smiles": "Fc1ccccc1N1CC(c2ccccc2)C(c2cccs2)=N1", "note": "(centres undefined)", "Potency": "inconclusive [activator, single point]"},
      {"smiles": "O=C(Cn1cc(CNC(=O)C2CCCCC2)nn1)Nc1cc(C(F)(F)F)ccc1Cl", "Potency": "inconclusive [activator, partial curve, poor fit]"},
      {"smiles": "O=C(O)CCCCCNC(=O)OCC1c2ccccc2-c2ccccc21", "activity, positive = re-replication": "inactive: 0.333%"},
      {"smiles": "CC(C)CN1C=C2C(=O)C(C)(OC(=O)C3CCCC3)C(=O)C=C2C=C1c1ccsc1", "note": "(centres undefined)", "Potency": "inconclusive [activator, single point]"},
      {"smiles": "CC1(C)Cc2ccccc2C(c2cc3ccccc3oc2=O)=N1", "Potency": "inconclusive [activator, single point]"},
      {"smiles": "COc1cn(-c2ccccc2)nc1C(=O)Nc1ccc(C)cc1Cl", "Potency": "inconclusive [activator, full curve, poor fit]"},
      {"smiles": "CCOC(=O)/C=C/[C@H]1CC(c2ccccc2)(c2ccccc2)CO1", "Potency": "inconclusive [activator, single point]"},
      {"smiles": "O=C(NC(=S)Nc1nc(-c2ccc(Cl)cc2)cs1)c1cccs1", "Potency": "inconclusive [activator, single point]"},
      {"smiles": "COC(=O)c1cccc2c1NC(=O)C2=O", "Potency": "inconclusive [activator, single point]"},
      {"smiles": "O=c1[nH][nH]c(=O)c2cc([N+](=O)[O-])ccc12", "Potency": "inconclusive [activator, single point]"},
      {"smiles": "COc1cccc(NC(=O)Cn2c3ccc(OC)cc3c3nc4n(c(=O)c32)CCS4)c1", "Potency": "inconclusive [activator, single point]"},
      {"smiles": "CSC1=NC(C)(C)C=C(/C=C/c2ccc(Cl)cc2)N1", "Potency": "active: 16.4 µM"},
      {"smiles": "OCC1(Cc2ccccc2)CCCN(Cc2c[nH]c3ccccc23)C1", "note": "(centres undefined)", "activity, positive = re-replication": "inactive: 0.455%"},
      {"smiles": "COC(=O)c1ccc(NC(=O)Nc2ccc(F)c(Cl)c2)cc1", "Potency": "inconclusive [activator, single point]"},
      {"smiles": "Cc1ccccc1C(=O)Nc1ccnc(-c2ccncc2)n1", "Potency": "inconclusive [activator, single point]"},
      {"smiles": "Cc1cc(OCc2cc(C(=O)NCCN3CCCCC3CO)no2)cc(C)c1Cl", "note": "(centres undefined)", "Potency": "inconclusive [activator, single point]"},
      {"smiles": "O=C(CN1C(=O)NC2(CCCC2)C1=O)Nc1cc(C(F)(F)F)ccc1N1CCCCC1", "activity, positive = re-replication": "inactive: 22%"},
      {"smiles": "CCOc1ccc(NC(=S)N(Cc2ccc(N(C)C)cc2)Cc2ccco2)cc1", "activity, positive = re-replication": "inactive: 19.2%"},
      {"smiles": "NC(=O)CN1C(=O)C(O)(CC(=O)/C=C\\C=C\\c2ccccc2)c2ccccc21", "note": "(centres undefined)", "activity, positive = re-replication": "inactive: 25.5%"},
      {"smiles": "Cc1nc(-c2ccccc2)sc1C(=O)O", "activity, positive = re-replication": "inactive: -14.4%"},
      {"smiles": "COc1ccc(OC)c(CN2CCSCC2)c1", "activity, positive = re-replication": "inactive: 4.11%"},
      {"smiles": "Cc1cccc2cc(CN(C(=O)c3cnccn3)C3CCCCC3)c(Cl)nc12", "Potency": "inconclusive [activator, single point]"},
      {"smiles": "COc1ccc(C(=O)CCC(=O)N2CCN(c3ccc(N4CCOCC4)nn3)CC2)cc1", "activity, positive = re-replication": "inactive: 3.41%"},
      {"smiles": "COc1ccc(Cn2c(C3CC3)nc3ccc(NC(=O)c4ccco4)cc3c2=O)cc1", "Potency": "inconclusive [activator, partial curve, poor fit]"},
      {"smiles": "COc1ccc(S(=O)(=O)N2CCOCC2)cc1NC(=O)CCNC(=O)c1ccc([N+](=O)[O-])cc1", "Potency": "inconclusive [activator, single point]"},
      {"smiles": "CNC(=S)Nc1ccc(C23CC4CC(CC(C4)C2)C3)cc1", "Potency": "inconclusive [activator, single point]"},
      {"smiles": "CC1N(C)c2cc(NC(=O)c3ccco3)ccc2C1(C)C", "note": "(centres undefined)", "Potency": "inconclusive [activator, single point]"},
      {"smiles": "O=C(O)COc1ccc(C(NC(=O)c2c(F)cccc2F)NC(=O)c2c(F)cccc2F)cc1", "activity, positive = re-replication": "inactive: -1.81%"},
      {"smiles": "COc1ccc(C(=O)c2c[nH]c(C(=O)NCCCn3ccnc3)c2)cc1", "Potency": "inconclusive [activator, partial curve, poor fit]"},
      {"smiles": "NC(=O)c1ccc[n+](CC(=O)c2ccc(NC(=O)c3ccccc3)cc2)c1", "activity, positive = re-replication": "inactive: 9.3%"},
      {"smiles": "COc1ccc(C(=O)NC(=S)NCC2CCCO2)cc1", "note": "(centres undefined)", "activity, positive = re-replication": "inactive: -3.27%"}
    ]}
  ]
}
